Structures are written as SMILES.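 Grown in 96-well plates, cells were treated for 48 hours with each compound at five concentrations. Insufficient inhibition: endpoint recorded as highest concentration tested. GI50 is the concentration that inhibits growth by half.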 The source made the active and inactive calls. Cut-off read from the data, not from the text of the source: active = GI50 up to about 1.1 µM and inactive = higher. A value given as a limit tells only on which side of the number the result lay.

This assay relates to NCI-H322M. As to the kind of experiment: NCI-60 cell line screen, 48 h.
For `COc1cc2c(cc1OC)C(C1(O)CCCCC1)NCC2` (stereo not drawn), the GI50 was inactive: > 100 µM.
To `CCCCCCCCCCCCCCCCCCOCC1(COP(=O)([O-])OCC[N+](C)(C)C)CCCO1` (stereo not drawn) belongs inactive: 12.9 µM; to `Cc1nc2c(nc1C)C(=O)C1=C(C2=O)C2C=CC1CC2`, inactive: 15.5 µM.
To `COn1cc(C=O)c2ccccc21` belongs inactive: > 82.2 µM; to `CS(=O)(=O)N(CCC#N)c1ccc(/C=N/NC(=O)CC(=O)Nc2cccc(Cl)c2)cc1`, inactive: > 100 µM.
To `O=[N+]([O-])CC(SCc1ccccc1)c1ccc2c(c1)OCO2` (stereo not drawn) belongs inactive: 18.6 µM; to `c1cnc2c(c1)ccc1cccnc12`, inactive: 4.15 µM; to `O=C(/C=C/c1ccc(OCCCOc2ccc(/C=C/C(=O)c3ccc(Cl)cc3)cc2)cc1)c1ccc(Cl)cc1`, inactive: > 100 µM.
As for `O=C(NC(Cc1ccc(Br)cc1)C(=O)O)c1ccc(I)cc1` (stereo not drawn), the GI50 is inactive: > 100 µM.
To `O=C(/C=C/c1ccccc1Cl)c1ccccc1Cl` belongs inactive: 46.2 µM.
To `CC(=O)Oc1ccc(C2COc3cc(OC(C)=O)c(OC(C)=O)cc3C2)cc1` (stereo not drawn) belongs inactive: 25.8 µM.
`Cc1cn(C2CC(ON3C(=O)c4ccccc4C3=O)C(CO)O2)c(=O)[nH]c1=O` (stereo not drawn): the GI50 was inactive: > 10 µM.
For `O=C(Nc1ccc([N+](=O)[O-])cc1[N+](=O)[O-])C(=O)C(C(=O)c1ccc2ccccc2c1)C1OC(=O)c2ccccc21` (stereo not drawn) the value was inactive: 13.2 µM; for `Cc1ccc(S(=O)(=O)NC(=O)NCCC(=O)O)cc1`, inactive: > 100 µM.
To `CCOC(=O)/C(=C/c1ccc(Cl)cc1)N(CC)CC` belongs inactive: > 100 µM.
For `CN(C)CCNC(=O)c1cccc2c(NC(CCCNC(=N)N)C(=O)O)c3ccccc3nc12` (stereo not drawn) the value was inactive: 10.6 µM; for `COc1cc(OC)cc(Oc2nc3c(N)cc(C(F)(F)F)cc3nc2-c2ccccc2)c1`, inactive: > 100 µM.
On to `COc1ccc2nc3cc(Cl)ccc3c(SCC(=O)Nc3ccccc3-c3ccccc3NC(=O)CSc3c4ccc(Cl)cc4nc4ccc(OC)cc34)c2c1`, for which the GI50 is inactive: > 100 µM.
For `CC(=O)OC1[C@H](n2ccnc2)C[C@H]2[C@@H]3CC=C4CC(N5CCCC5)CC[C@]4(C)[C@H]3CC[C@]12C` (stereo partly drawn) the value was inactive: > 100 µM; for `CCCOP(=O)(OCCC)OC(C(F)(F)F)C(F)(F)F`, inactive: > 100 µM.
To `CCOC(=O)c1sc2c(c1OC(=O)c1cc(OC)c(OC)c(OC)c1)c(=O)n(-c1ccccc1)c(=S)n2-c1ccccc1` belongs inactive: > 100 µM; to `CCCCC(/C=C\COC1CCCCO1)=C/C(=O)OCC` (stereo not drawn), inactive: > 100 µM.
To `CC1(C)N=C(N)N=C(N)N1CCCCc1ccccc1` belongs active: 0.374 µM; to `COc1ccc(NC(=O)CC(=O)N2N=C(N(CCC#N)c3cccc(C)c3)CC2c2ccccc2)cc1` (stereo not drawn), inactive: > 100 µM.
For `CCOC(=O)NCC(=O)NCC(=O)NCC(N)=O`, the GI50 is inactive: > 100 µM.
Turning to `O=C1OC(c2ccccc2)N/C1=C\c1ccc2c(c1)OCO2` (stereo not drawn), the GI50 is inactive: > 100 µM.
For `CC1=C(c2ccccc2)C(c2ccccc2)=C(c2ccccc2)C2(c3ccccc3)C(=O)C(C)CN12` (stereo not drawn) the value was inactive: 81.5 µM; for `CC(C)c1ccc(C2NC(S)=NC3=C2c2ccccc2C3=O)cc1` (stereo not drawn), inactive: 28.1 µM.
For `O=c1c2cc([N+](=O)[O-])ccc2n2n1Cc1ccccc1CC2` the value was inactive: > 100 µM; for `CCOC(=O)C1=C(C)OC2(O)C=CC(O)=C3C(=O)N(c4ccccc4)C(=O)C312` (stereo not drawn), inactive: > 100 µM.
To `CC(=O)c1csc2c1C(=O)c1scc(C(C)=O)c1C2=O` belongs inactive: 1.45 µM.
Take `Cc1ccc(NC(=O)/C(=N/NC(=O)C[N+](C)(C)C)c2nc3ccccc3nc2O)cc1`: the GI50 is inactive: > 100 µM.
For `O=C1Nc2ccccc2/C1=C\c1c(Cl)nc2n1CCS2` the value was inactive: 34.1 µM.
To `CC(C)OP(=O)(OC(C)C)/C(N)=N/Nc1ccc([N+](=O)[O-])cc1` belongs inactive: 80.7 µM; to `N#CCCN(c1ccc(C=O)cc1)S(=O)(=O)c1ccccc1`, inactive: > 100 µM; to `COc1ccc(C2c3cc(OC)c(OC)cc3C(Cc3ccc([N+](=O)[O-])cc3)C2c2ccc([N+](=O)[O-])cc2)cc1OC` (stereo not drawn), inactive: > 100 µM.
For `O=c1/c(=C/c2ccc(-c3ccc(Cl)cc3Cl)o2)sc2n1[C@@H](c1ccc3c(c1)OCO3)C=C(c1cc(F)c(Cl)cc1Cl)N=2`, the GI50 was inactive: 19.3 µM.
In the case of `CCc1cc2c(c3c1CCC3=O)CC1(Cc3ccc(C)cc3C1)C2` (stereo not drawn), the GI50 was inactive: 45.9 µM.
To `COC(=O)C1(Cc2ccc(C)cc2)Cc2c(C)cccc2C1=O` (stereo not drawn) belongs inactive: 45.3 µM; to `COC(=O)C1(C(=O)OC)CC2c3c(c4ccccc4n3C)CC(C1=O)N2Cc1ccccc1` (stereo not drawn), inactive: > 100 µM.
For `COc1cc(Br)cc2cc(C3=CSC4=NCCN34)c(=O)oc12` the value was inactive: 18.3 µM; for `CS(=O)(=O)NNS(=O)(=O)c1ccc(Br)cc1`, inactive: > 100 µM; for `COC1=N[C@H](C(C)C)C(OC)=N[C@H]1Cc1ccc(C[C@@H]2N=C(OC)[C@@H](C(C)C)N=C2OC)s1`, inactive: 44.8 µM.
To `COC1O[C@H]2[C@H]3[C@@H]1[C@@H](OS(=O)(=O)c1ccc(C)cc1)C(=O)N3C[C@H]2O` (stereo partly drawn) belongs inactive: > 100 µM; to `O=C1/C(=C/c2cccc([N+](=O)[O-])c2)N=C(c2ccccc2)N1c1ccc2c(c1)Sc1cc(N3C(=O)/C(=C/c4cccc([N+](=O)[O-])c4)N=C3c3ccccc3)ccc1N2`, inactive: 19.3 µM; to `CC1(C)OC2CN(C(=O)OCc3ccccc3)C(CO)C2O1` (stereo not drawn), inactive: > 100 µM.
With `CC(C)(C)C#COC(=O)c1ccccc1`, the GI50 is inactive: > 100 µM.
For `CNC(=O)C(C)NC(=O)C(Cc1ccccc1)NC(=O)OC(C)(C)C` (stereo not drawn) the value was inactive: > 100 µM; for `COc1cc2c(cc1C1=NC(C)(C)CO1)OCO2`, inactive: > 100 µM; for `CN(C)CCCNc1nnc(NCCCN(C)C)c2c(=O)c3sccc3[nH]c12`, inactive: 8.91 µM.
To `Cc1cc2c(c(C)c1O)C(C)(C)CN2C(=O)C(C)(C)C` belongs inactive: > 100 µM; to `CCOC(=O)C1Cc2ccc(C)cc2C1=O` (stereo not drawn), inactive: > 100 µM; to `COc1cccc(-c2ccc3c4c2O[C@H]2C(=O)CC[C@@]5(O)[C@@H](C3)N(CC3CC3)CC[C@]425)c1`, inactive: 16.3 µM.
For `O=C(O)C(C1NCCS1)N1Cc2ccccc2C1` (stereo not drawn) the value was inactive: > 100 µM; for `c1ccc2c(c1)Sc1nccc3ccnc-2c13`, inactive: 44.6 µM; for `Nc1ncnc2c1ncn2C1OC(CO)=CC1O` (stereo not drawn), inactive: > 37.5 µM.
Regarding `O=[N+]([O-])c1nccn1COCCI`, the GI50 was inactive: > 100 µM.
For `CN1CN(c2ccccc2)C2(CCN(C3Nc4ccccc4O3)CC2)C1=O` (stereo not drawn) the value was inactive: 29.4 µM; for `CN(C)NC1=NS(=O)(=O)c2cc3c(cc2S1)N(N(C)C)C(=O)c1cc2c(cc1N(N(C)C)C3=O)SC(NN(C)C)=NS2(=O)=O`, inactive: > 10 µM; for `Nc1c(F)c(F)c2c(c1F)N(CCCCCl)c1ccccc1S2`, inactive: > 100 µM.
For `CO/N=C(\C(=O)N(C)n1cnnc1)c1csc(NC(c2ccccc2)(c2ccccc2)c2ccccc2)n1` the value was inactive: > 10 µM.
For `COC(=O)/C=C(/C(=O)OC)C1(C)c2cc(C(=O)OC)c(C(=O)OC)c(N)c2C(=N)N1c1ccccc1` (stereo not drawn) the value was inactive: 55.7 µM.
As for `CC(C)(C)C(=O)C(Cc1ccccc1)C(=O)C(C)(C)C`, the GI50 is inactive: > 100 µM.
For `Nc1cc([N+](=O)[O-])ccc1C(=O)N1CCC[C@H]1CO` the value was inactive: > 100 µM.
To `O=c1oc2ccccc2c(Nc2ccc3c(c2)Sc2ccccc2O3)c1[N+](=O)[O-]` belongs inactive: 22.2 µM; to `O=C(NCc1ccccc1)c1cnc(Cl)cn1`, inactive: 28.1 µM; to `Cc1c(-c2nc(N)c(C#N)c(N)c2C#N)c(=O)oc2ccccc12`, inactive: > 100 µM.
`O=C1C2C=CC(C2)C(c2ccc(O)cc2)N1O` (stereo not drawn): the GI50 was inactive: > 100 µM.
For `Cc1nc2ccc(F)cc2c2c1CCO2` the value was inactive: > 100 µM; for `O=C(NC(=S)Nc1ccc2c(c1)Sc1ccccc1O2)c1ccccc1`, inactive: 40.8 µM.
For `Nc1ccc(C(c2ccccc2)(c2ccccc2)c2ccccc2)cc1`, the GI50 was inactive: 69.7 µM.
For `CC(C)(C)C(=O)Nc1c(C=O)ccc2[nH]cnc12` the value was inactive: > 100 µM; for `CN(C)c1cccc2c1C(=O)C=CC21c2ccc(N(C)C)c3c(N(C)C)ccc(c23)C(c2ccccc2)C1c1ccccc1` (stereo not drawn), inactive: 19.1 µM; for `CCCCC1Cc2ccccc2-c2nc3ccccc3n21` (stereo not drawn), inactive: 17.1 µM.
To `COc1cc(C2c3cc4c(cc3[C@@H](Nc3ccc(N(C)C)cc3)[C@H]3COC(=O)C23)OCO4)cc(OC)c1O` (stereo partly drawn) belongs inactive: 5.96 µM; to `CC(C)=NOC(=O)OC[C@H]1O[C@@H](n2cnc3c(N)ncnc32)C(O)C1O` (stereo partly drawn), inactive: 48.1 µM; to `COc1ccccc1-c1cc(O)c2cc(C)cnc2n1`, inactive: 51.9 µM.
To `O=C(O)COc1cc(-c2ccccc2F)nc2cc3c(cc12)OCO3` belongs inactive: > 100 µM; to `NC(=O)C1CCCN1C(=O)N(CCCl)N=O` (stereo not drawn), inactive: > 100 µM; to `Cn1c(=O)nc2n(-c3cc(C(F)(F)F)cc(C(F)(F)F)c3)c3ccccc3nc-2c1=O`, inactive: > 100 µM.
As to `Cc1c2ccncc2c(C)c2c1[nH]c1ccc(OC(C)(C)C)cc12`, the GI50 is inactive: 2.38 µM.
To `Oc1cc(-c2cccc(F)c2)nc2cc3c(cc12)OCO3` belongs active: 0.118 µM; to `CC(C)=CCOc1cc(NC(=S)c2ccsc2C)ccc1Cl`, inactive: 49.4 µM.

Values taken from ChEMBL document CHEMBL1201862, “PubChem BioAssay data set” (2004).
